Experimental findings from a compilation of properties of binary mixtures (doi:10.1016/j.molliq.2022.118677) are described below.

One may read the mass density as mass per unit of volume.

The series can be described thus: xn = mol fraction of the nth substance listed. The conditions noted are these: 100 kPa, x2 = 0.5.

SMILES strings stand for the structures. Some of these densities may be calculated back from excess volumes.

On to `CCCCCCCCn1cc[n+](C)c1C.F[P-](F)(F)(F)(F)F` + CCCCCCCC[n+]1ccn(C)c1.F[P-](F)(F)(F)(F)F, for which the mass density is 1170.4 kg/m3 (293.15 K), 1163 kg/m3 (303.15 K), 1156 kg/m3 (313.15 K) and 1148.4 kg/m3 (323.15 K).

As for `CCCCCCCC[n+]1ccn(C)c1C.F[B-](F)(F)F` + CCCCCCCC[n+]1ccn(C)c1.F[P-](F)(F)(F)(F)F, the mass density by setting is: (293.15 K) 1238.8 kg/m3; (303.15 K) 1232.4 kg/m3; (313.15 K) 1223.9 kg/m3; (323.15 K) 1216.5 kg/m3; (333.15 K) 1209.6 kg/m3; (343.15 K) 1202.8 kg/m3. Further, where the note is “353.15 K”, the mass density was determined as 1195.2 kg/m3.
